From US20200179510A1, “LOW DENSITY LIPOPROTEIN RECEPTOR RELATED PROTEIN 5 INHIBITION SUPPRESSES TUMOR FORMATION” (YALE UNIVERSITY, priority 2017, published 2020)

How the values were obtained:
[1] = system: intestinal polyps of APC^Min/+ mice; experiment: Tumor burden (intestinal polyps) in APC^Min/+ mice; format: in vivo, mouse; details: 8 mg/kg twice a week i.p., 8 weeks
From the text: The role of DKK2 in tumorigenesis was further tested by examining the effects of DKK-2 deficiency on polyp formation in APC^Min/+ mice (designated APC) and APC^Min/+ DKK2^−/− (APCKO) mice. Mice were housed in a specific pathogen free vivarium and fed with regular or high fat chow. Intestinal sections were stained with methylene-blue and polyps were counted under a stereomicroscope. […] There were smaller and fewer intestinal polyps in an APC^Min/+ DKK2^−/− mice than in APC^Min/+ mice, as shown in representative histological sections of intestine, stained with haematoxylin and eosin, from male mice fed regular chow (FIG. 1C).
To investigate if the 5F8 antibody reduced polyp formation in APC^Min/+ mice, similar to DKK2 deficiency in APC^Min/+ DKK2^−/− mice, the tumor burden was analyzed in treated and control mice. […] Further, the number of polyps in 5F8-treated APC^Min/+ mice was essentially the same as the number of polyps found in APC^Min/+ DKK2^−/− mice, either 5F8 or control IgG treated mice (FIG. 1G). Taken together, the results provide proof of principle evidence that 5F8 is a blocking antibody for DKK2 that suppresses tumor formation via the Wnt co-receptor LRP 5/6 pathway. Further, 5F8 blocks the interaction between DKK2 and LRP5 interaction, but in doing so, 5F8 also promoted DKK2-mediated disinhibition of Wnt signaling.

[2] = system: DKK2 binding to LRP5; experiment: DKK2-AP binding assay on LRP5-transfected HEK293 cells; details: HEK293 transfected with LRP5, 5F8 120 nM
Procedure: The binding assay was performed as previously described (56). In brief, HEK293T cells were transfected with LacZ or LRP5 using Lipofectamine Plus for 24 hours. Cells were washed once with a cold washing buffer (Hanks' buffered salt solution containing 1% bovine serum albumin, 20 mM HEPES, and 0.5% NaN3) and incubated with the washing buffer containing 20% of DKK2-AP conditioned medium on ice for 2 h. The cells were then washed three times with the washing buffer and lysed with 1% Triton X-100 and 20 mM Tris-HCl, pH 7.5. The lysates were heated at 65° C. for 10 min to inactivate endogenous AP and then added with a chemiluminescence AP substrate (Thermo Fisher T1015). The activity was measured by an EnVision plate reader.
To examine whether 5F8 blocks DKK2 binding to LRP5, a binding assay was performed. In this study, HEK293 cells were transfected with LacZ (control plasmid) or LRP5 expression plasmid. The direct binding of DKK2-AP fusion protein to LRP5 overexpressed on the cell surface was measured, both in the presence or absence of 5F8.

B1: 5F8: Mouse monoclonal antibody to DKK2, raised against a synthetic peptide of human DKK2 (SEQ ID NO: 21); chains SEQ ID NOs: 22, 23 (antibody, V domains shown)
VH: GAELVRPGASVKLSCKASGYSFTNYWMNWVKQRPGQGLEWIGMIHPSDSETRLNQKFKDKATLTVDKSSSTAYMQLSSPTSEDSAVYYCAREGRLGLRSYAMDYWGQGTSVTVSS
VL: PSSLAMSVGQKVTMSCKSSQSLLNSSNQKNYLAWYQQKPGQSPKLLVYFASTRESGVPDRFVGSGSGTDFTLTITSVQAEDLADYFCQQHYITPLTFGAGTKLE
With B1 the “number of intestinal polyps” value [1] was “significantly diminished the number of intestinal polyps” and the “binding of DKK2-AP fusion protein to LRP5 on the cell surface” value [2] was “blocked DKK2 binding to LRP5”.
